± gives the uncertainty stated by the source. The sequences are guide strands of siRNAs; only the seed at positions 2 to 7 varies.
How the values were obtained:
3LL = assay: cell viability relative to siNT1 control; higher = less toxic; settings: concentration: 10 nM; 96 h; Mus musculus;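 note: Luminescence-based viability of cells reverse transfected in 384-well plates with lipid-complexed siRNAs built on a non-toxic 19mer backbone whose passenger strand carries 2′-O-methyl groups at positions 1 and 2, triplicates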
M565 = assay: cell viability relative to lipid-only control; HeyA8 human ovarian and H460 human lung cancer; M565 mouse liver and 3LL mouse lung cancer; siNT1 is a non-toxic control siRNA; higher = less toxic; settings: concentration: 10 nM; 96 h; Mus musculus
HeyA8 = assay: as above; settings: concentration: 10 nM; 96 h; Homo sapiens
H460 = assay: as above; settings: concentration: 10 nM; 96 h; Homo sapiens
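Throughout, for cell viability relative to lipid-only control: reverse lipid transfection in 384-well plates, in triplicate, of duplexes on a non-toxic 19mer backbone with passenger strand 2′-O-methylated at positions 1 and 2, luminescence viability read-out.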

| Sequence | cell viability (3LL) [%] | cell viability (M565) [%] | cell viability (HeyA8) [%] | cell viability (H460) [%] |
| --- | --- | --- | --- | --- |
| UGUUGAGACAUGUAAACCAAA | 48.2 ± 18 | 23.2 ± 4.8 | 46.7 ± 5.8 | 79.1 ± 12 |
| UGUUGAUACAUGUAAACCAAA | 50 ± 6.8 | 10.3 ± 1 | 15.5 ± 1.9 | 37.2 ± 3.4 |
| UGUUGCAACAUGUAAACCAAA | 84.3 ± 8.9 | 31 ± 0.56 | 47 ± 3 | 82.6 ± 12 |
| UGUUGCCACAUGUAAACCAAA | 6.71 ± 4.2 | 16.7 ± 6.5 | 3.64 ± 0.33 | 18.9 ± 2.4 |
| UGUUGCGACAUGUAAACCAAA | 71.2 ± 8.6 | 22.1 ± 2.5 | 63 ± 5.9 | 94.6 ± 14 |
| UGUUGCUACAUGUAAACCAAA | 28 ± 15 | 18.9 ± 2.6 | 14.5 ± 1.2 | 14.4 ± 2.7 |
| UGUUGGAACAUGUAAACCAAA | 92.5 ± 3.6 | 18.4 ± 2 | 21.1 ± 7.5 | 41.6 ± 4.7 |
| UGUUGGCACAUGUAAACCAAA | 27.7 ± 2.3 | 21.7 ± 7.1 | 40.4 ± 7 | 36.4 ± 5.1 |
| UGUUGGGACAUGUAAACCAAA | 36.3 ± 11 | 24.2 ± 5.1 | 7.79 ± 0.91 | 22.8 ± 2.7 |
| UGUUGGUACAUGUAAACCAAA | 24 ± 10 | 7.05 ± 0.31 | 39.5 ± 0.85 | 45.2 ± 5 |
| UGUUGUAACAUGUAAACCAAA | 99.2 ± 10 | 35.4 ± 6.1 | 57.1 ± 9.2 | 58 ± 7.7 |
| UGUUGUCACAUGUAAACCAAA | 46.9 ± 21 | 21.6 ± 5.3 | 19.7 ± 1.8 | 27 ± 3.6 |
| UGUUGUGACAUGUAAACCAAA | 88.2 ± 0.78 | 32.8 ± 5.7 | 58.4 ± 6 | 59.2 ± 3.1 |
| UGUUGUUACAUGUAAACCAAA | 70.1 ± 16 | 33.9 ± 5.7 | 9.56 ± 2 | 69.5 ± 8.8 |
| UGUUUAAACAUGUAAACCAAA | 96 ± 11 | 85.8 ± 21 | 74.3 ± 8.1 | 59.9 ± 7.5 |
| UGUUUACACAUGUAAACCAAA | 87.3 ± 7 | 71.5 ± 14 | 92.7 ± 9.9 | 66.9 ± 10 |
| UGUUUAGACAUGUAAACCAAA | 95 ± 5.5 | 91.8 ± 7.6 | 59.7 ± 5.2 | 56.4 ± 4 |
| UGUUUAUACAUGUAAACCAAA | 89.9 ± 13 | 73.5 ± 8.2 | 78.1 ± 4.8 | 76 ± 2.1 |
| UGUUUCAACAUGUAAACCAAA | 84.4 ± 5 | 80.8 ± 5.7 | 26.5 ± 5.9 | 50.9 ± 2.8 |
| UGUUUCCACAUGUAAACCAAA | 55.2 ± 21 | 83.5 ± 21 | 4.57 ± 1.1 | 47 ± 5.9 |

| Sequence | cell viability (3LL) [%] | cell viability (M565) [%] | cell viability (HeyA8) [%] | cell viability (H460) [%] |
| --- | --- | --- | --- | --- |
| UGUUUCGACAUGUAAACCAAA | 82.3 ± 5.7 | 78.2 ± 9 | 48.6 ± 3.9 | 50.9 ± 4.7 |
| UGUUUCUACAUGUAAACCAAA | 88.6 ± 3.6 | 80.6 ± 5.1 | 25.9 ± 4.6 | 51.2 ± 2.3 |
| UGUUUGAACAUGUAAACCAAA | 78.5 ± 5.8 | 95 ± 9.4 | 64 ± 9.9 | 60.6 ± 7 |
| UGUUUGCACAUGUAAACCAAA | 83 ± 11 | 62.2 ± 1.5 | 37.7 ± 4.3 | 65.3 ± 7.7 |
| UGUUUGGACAUGUAAACCAAA | 80.6 ± 2.8 | 109 ± 22 | 57.9 ± 9 | 81.3 ± 10 |
| UGUUUGUACAUGUAAACCAAA | 34.7 ± 12 | 83.7 ± 8.5 | 40.1 ± 4.2 | 56.7 ± 5.4 |
| UGUUUUAACAUGUAAACCAAA | 85.6 ± 5.4 | 99.5 ± 20 | 88.7 ± 4.4 | 63.3 ± 4.2 |
| UGUUUUCACAUGUAAACCAAA | 82.1 ± 5.7 | 84.7 ± 7.3 | 17.1 ± 1.9 | 81.1 ± 9.4 |
| UGUUUUGACAUGUAAACCAAA | 72.3 ± 9.9 | 90.2 ± 15 | 78.9 ± 14 | 66.6 ± 5.2 |
| UGUUUUUACAUGUAAACCAAA | 85.1 ± 3 | 94.8 ± 9.9 | 64.2 ± 1.1 | 62.1 ± 5.3 |
| UUAAAAAACAUGUAAACCAAA | 97.5 ± 7.7 | 100 ± 23 | 98.5 ± 5.7 | 75.5 ± 5.8 |
| UUAAAACACAUGUAAACCAAA | 87.8 ± 6.5 | 106 ± 11 | 100 ± 5.2 | 60.8 ± 5.6 |
| UUAAAAGACAUGUAAACCAAA | 105 ± 13 | 96.9 ± 22 | 96.8 ± 4.1 | 85.1 ± 24 |
| UUAAAAUACAUGUAAACCAAA | 82.8 ± 11 | 78.9 ± 12 | 93.4 ± 4.8 | 77.4 ± 14 |
| UUAAACAACAUGUAAACCAAA | 98.9 ± 13 | 107 ± 21 | 99.2 ± 4.2 | 83.7 ± 20 |
| UUAAACCACAUGUAAACCAAA | 77.5 ± 11 | 97.3 ± 12 | 64 ± 3.5 | 38.3 ± 3.4 |
| UUAAACGACAUGUAAACCAAA | 91.2 ± 7.6 | 105 ± 6.9 | 95.4 ± 7.1 | 66.3 ± 6 |
| UUAAACUACAUGUAAACCAAA | 94.1 ± 18 | 109 ± 11 | 89.1 ± 2.8 | 69.8 ± 17 |
| UUAAAGAACAUGUAAACCAAA | 96.7 ± 10 | 80.6 ± 18 | 93.9 ± 2.3 | 72.8 ± 9.6 |
| UUAAAGCACAUGUAAACCAAA | 48 ± 5.5 | 43.8 ± 5.3 | 36.9 ± 4.2 | 30.1 ± 6.3 |

| Sequence | cell viability (3LL) [%] | cell viability (M565) [%] | cell viability (HeyA8) [%] | cell viability (H460) [%] |
| --- | --- | --- | --- | --- |
| UUAAAGGACAUGUAAACCAAA | 86.6 ± 6.5 | 46.2 ± 8.8 | 87.1 ± 3.8 | 74.3 ± 14 |
| UUAAAGUACAUGUAAACCAAA | 46.6 ± 4.7 | 44.9 ± 9.2 | 47.4 ± 3.9 | 35.3 ± 1.3 |
| UUAAAUAACAUGUAAACCAAA | 83.5 ± 6.5 | 98.5 ± 8.8 | 96.7 ± 8.8 | 79.5 ± 22 |
| UUAAAUCACAUGUAAACCAAA | 41.6 ± 4.5 | 82.7 ± 4.3 | 71.8 ± 1.5 | 61.7 ± 5.8 |
| UUAAAUGACAUGUAAACCAAA | 101 ± 13 | 85.6 ± 17 | 93.3 ± 6.1 | 67.8 ± 10 |
| UUAAAUUACAUGUAAACCAAA | 89.8 ± 4.2 | 108 ± 2.9 | 89.6 ± 7.5 | 75.3 ± 17 |
| UUAACAAACAUGUAAACCAAA | 99.3 ± 2.4 | 108 ± 9.7 | 100 ± 4.2 | 89.7 ± 13 |
| UUAACACACAUGUAAACCAAA | 75.1 ± 6.8 | 74.3 ± 6.7 | 81.1 ± 8.8 | 73.6 ± 13 |
| UUAACAGACAUGUAAACCAAA | 84.9 ± 5.4 | 79.5 ± 3 | 91.9 ± 10 | 91.1 ± 25 |
| UUAACAUACAUGUAAACCAAA | 100 ± 15 | 111 ± 10 | 97.8 ± 1.8 | 77.8 ± 7.9 |
| UUAACCAACAUGUAAACCAAA | 91.7 ± 4.3 | 84.6 ± 5.5 | 92.3 ± 9.2 | 85.8 ± 21 |
| UUAACCCACAUGUAAACCAAA | 31.5 ± 5.7 | 53.2 ± 6 | 65.9 ± 7.4 | 41.8 ± 4.6 |
| UUAACCGACAUGUAAACCAAA | 92.8 ± 8.5 | 104 ± 16 | 98.9 ± 11 | 92.3 ± 23 |
| UUAACCUACAUGUAAACCAAA | 76.7 ± 7 | 85.6 ± 16 | 70.4 ± 1.9 | 79.6 ± 3.9 |
| UUAACGAACAUGUAAACCAAA | 102 ± 5.5 | 117 ± 24 | 98.7 ± 8.2 | 79.3 ± 10 |
| UUAACGCACAUGUAAACCAAA | 39.4 ± 4.9 | 37.4 ± 5.2 | 90 ± 6.8 | 81.4 ± 7 |
| UUAACGGACAUGUAAACCAAA | 95.6 ± 8.4 | 107 ± 11 | 93.7 ± 9.3 | 70.9 ± 10 |
| UUAACGUACAUGUAAACCAAA | 69.9 ± 17 | 113 ± 7.5 | 92.3 ± 5.8 | 71.4 ± 12 |
| UUAACUAACAUGUAAACCAAA | 99.6 ± 10 | 104 ± 10 | 103 ± 8.3 | 78.7 ± 15 |
| UUAACUCACAUGUAAACCAAA | 80.6 ± 5.4 | 85.5 ± 14 | 94 ± 7.6 | 68.2 ± 1.2 |

Source: the supplement of paper PMC6206098
